# Measurements from the supplement of paper PMC4604168 (melanoma cell lines).
# The list shows a part of the results. Most values come without repeats; read them as rough.
# Legend:
# Assay in all cases: cell count relative to DMSO control; melanoma cells; higher = more viable cells
# Conditions in all cases: library dose: low library concentration; 72 h
# COLO792 = system: COLO792
# COLO800 = system: COLO800
# COLO829 = system: COLO829
# G361 = system: G361
# IPC-298 = system: IPC-298
# IST-MEL1 = system: IST-MEL1
# LB2518-MEL = system: LB2518-MEL
# LOXIMVI = system: LOXIMVI
# MEL-HO = system: MEL-HO
# 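Also: cell number obtained by counting DAPI-stained nuclei in high-throughput microscope images with image analysis software, screen run in 1,536-well plates.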
Compound,cell count (COLO792) [%],cell count (COLO800) [%],cell count (COLO829) [%],cell count (G361) [%],cell count (IPC-298) [%],cell count (IST-MEL1) [%],cell count (LB2518-MEL) [%],cell count (LOXIMVI) [%],cell count (MEL-HO) [%]
"CS(=O)(=O)CCNCc1ccc(-c2ccc3ncnc(Nc4ccc(OCc5cccc(F)c5)c(Cl)c4)c3c2)o1 [lapatinib] + Cc1cc(N2CCOCC2)cc2[nH]c(-c3c(NC[C@@H](O)c4cccc(Cl)c4)cc[nH]c3=O)nc12 [BMS536924] (first compound 0.8 µM, partner dose 0.2 µM)",54.9,54.2,92.6,93.7,93.2,93.8,88,124,99.1
"CN1CCN(c2ccc3nc(-c4c(N)c5c(F)cccc5[nH]c4=O)[nH]c3c2)CC1 [Dovitinib] + CO[C@@H]1[C@H](N(C)C(=O)c2ccccc2)C[C@H]2O[C@]1(C)n1c3ccccc3c3c4c(c5c6ccccc6n2c5c31)C(=O)NC4 [Midostaurin] (first compound 0.1 µM, partner dose 0.08 µM)",95.1,72.5,88.5,96.1,101,98.3,92.6,74.5,93.4
"C=CCNC1=C2C[C@@H](C)C[C@H](OC)[C@H](O)[C@@H](C)/C=C(\C)[C@H](OC(N)=O)[C@@H](OC)/C=C\C=C(/C)C(=O)NC(=CC1=O)C2=O [Tanespimycin] + CC1(C)NC(=O)N(c2ccc([N+](=O)[O-])c(C(F)(F)F)c2)C1=O [nilutamide] (first compound 0.002 µM, partner dose 1 µM)",92.9,151,103,101,101,96.5,98.3,126,94.5
"C[C@@H](Oc1cc(-c2cnn(C3CCNCC3)c2)cnc1N)c1c(Cl)ccc(F)c1Cl [Crizotinib] + CN(C)S(=O)(=O)c1ccc2c(c1)/C(=C/c1cc3c([nH]1)CCCC3)C(=O)N2 [SU6656] (first compound 0.2 µM, partner dose 0.4 µM)",83.8,96,82.5,89.1,98.2,95.4,82.3,130,94.4
"CNC(=O)c1cc(Oc2ccc(NC(=O)Nc3ccc(Cl)c(C(F)(F)F)c3)cc2)ccn1 [sorafenib] + COc1ccc2c(c1)CCC1C2CCC2(C)C(NCCCCCCN3C(=O)C=CC3=O)CCC12 [U73122] (first compound 0.4 µM, partner dose 0.4 µM)",117,139,98.1,99.5,97.7,102,97,68,99
"CS(=O)(=O)CCNCc1ccc(-c2ccc3ncnc(Nc4ccc(OCc5cccc(F)c5)c(Cl)c4)c3c2)o1 [lapatinib] + COc1cc(N2CCC(N3CCN(C)CC3)CC2)ccc1Nc1ncc(Cl)c(Nc2ccccc2S(=O)(=O)C(C)C)n1 [NVP-TAE684] (first compound 0.8 µM, partner dose 0.08 µM)",74.4,99.2,87.8,100,94.5,98.6,114,75.7,93.2
"C[C@@H](Oc1cc(-c2cnn(C3CCNCC3)c2)cnc1N)c1c(Cl)ccc(F)c1Cl [Crizotinib] + NCC(=O)Nc1ccc(-n2nc(C(F)(F)F)cc2-c2ccc3c(ccc4ccccc43)c2)cc1 [OSU03012] (first compound 0.2 µM, partner dose 1 µM)",82.4,90,85.2,97.2,81.8,99,93.1,53.7,101
"C=CCNC1=C2C[C@@H](C)C[C@H](OC)[C@H](O)[C@@H](C)/C=C(\C)[C@H](OC(N)=O)[C@@H](OC)/C=C\C=C(/C)C(=O)NC(=CC1=O)C2=O [Tanespimycin] + O=C(Nc1ccccc1)c1cc([N+](=O)[O-])ccc1Cl [GW9662] (first compound 0.002 µM, partner dose 2 µM)",107,107,92.9,98.8,96.6,105,104,103,109
"CN1CCN(c2ccc3nc(-c4c(N)c5c(F)cccc5[nH]c4=O)[nH]c3c2)CC1 [Dovitinib] + Cc1ccc(NC(=O)c2cccc(N(C)C)c2)cc1NC(=O)c1ccc(O)cc1 [ZM336372] (first compound 0.1 µM, partner dose 2 µM)",119,144,102,99.7,78.1,100,69.4,116,95.8
"CNC(=O)c1cc(Oc2ccc(NC(=O)Nc3ccc(Cl)c(C(F)(F)F)c3)cc2)ccn1 [sorafenib] + COc1cc(Nc2ncc(F)c(Nc3ccc4c(n3)NC(=O)C(C)(C)O4)n2)cc(OC)c1OC [Tamatinib] (first compound 0.4 µM, partner dose 0.4 µM)",69.1,73,76.2,104,77.2,97.5,68.7,52.4,79.2
"CNC(=O)c1cc(Oc2ccc(NC(=O)Nc3ccc(Cl)c(C(F)(F)F)c3)cc2)ccn1 [sorafenib] + O=C(Nc1ccccc1)c1cc([N+](=O)[O-])ccc1Cl [GW9662] (first compound 0.4 µM, partner dose 2 µM)",118,125,113,123,102,106,109,107,110
"CS(=O)(=O)CCNCc1ccc(-c2ccc3ncnc(Nc4ccc(OCc5cccc(F)c5)c(Cl)c4)c3c2)o1 [lapatinib] + O=C(Nc1cccc(Cl)c1)Nc1ncc(CCNc2ncnc3ccsc23)s1 [SNS314] (first compound 0.8 µM, partner dose 0.0008 µM)",84.8,77.6,97.6,92.2,98.3,107,108,91.2,91.5
"C=CCNC1=C2C[C@@H](C)C[C@H](OC)[C@H](O)[C@@H](C)/C=C(\C)[C@H](OC(N)=O)[C@@H](OC)/C=C\C=C(/C)C(=O)NC(=CC1=O)C2=O [Tanespimycin] + Cc1cc([N+](=O)[O-])ccc1NS(=O)(=O)c1cc(Cl)ccc1Cl [FH535] (first compound 0.002 µM, partner dose 1 µM)",93.7,114,99.6,85.9,87.4,81.9,73.6,102,92.6
"CNC(=O)c1cc(Oc2ccc(NC(=O)Nc3ccc(Cl)c(C(F)(F)F)c3)cc2)ccn1 [sorafenib] + N#Cc1c(O)c2c(-c3ccc(-c4ccccc4O)cc3)csc2[nH]c1=O [A769662] (first compound 0.4 µM, partner dose 2 µM)",104,114,75.7,85.5,93.8,86,98.6,85.8,95.9
"CNC(=O)c1cc(Oc2ccc(NC(=O)Nc3ccc(Cl)c(C(F)(F)F)c3)cc2)ccn1 [sorafenib] + c1cc(-c2cnn3cc(-c4ccc(OCCN5CCCCC5)cc4)cnc23)ccn1 [Dorsomorphin] (first compound 0.4 µM, partner dose 0.4 µM)",123,180,107,93.3,98.6,94.2,102,117,96.1
"CNC(=O)c1cc(Oc2ccc(NC(=O)Nc3ccc(Cl)c(C(F)(F)F)c3)cc2)ccn1 [sorafenib] + O=c1cc(-c2cccc3c2Sc2ccccc2S3)oc(N2CCOCC2)c1 [KU55933] (first compound 0.4 µM, partner dose 1 µM)",110,129,124,115,94.4,110,121,136,88.7
"C=CCNC1=C2C[C@@H](C)C[C@H](OC)[C@H](O)[C@@H](C)/C=C(\C)[C@H](OC(N)=O)[C@@H](OC)/C=C\C=C(/C)C(=O)NC(=CC1=O)C2=O [Tanespimycin] + CC(C)(C)c1cnc(CSc2cnc(NC(=O)C3CCNCC3)s2)o1 [SNS-032] (first compound 0.002 µM, partner dose 0.01 µM)",90.4,96.9,111,103,102,100,74.7,80.5,100
"CS(=O)(=O)CCNCc1ccc(-c2ccc3ncnc(Nc4ccc(OCc5cccc(F)c5)c(Cl)c4)c3c2)o1 [lapatinib] + OCCn1cc(-c2cnc3nnn(Cc4ccc5ncccc5c4)c3n2)cn1 [PF04217903] (first compound 0.8 µM, partner dose 1 µM)",79.4,77.3,106,109,95,93.2,100,104,95.3
